{"source": "PubChem BioAssay AID1477", "about": "(National Center for Advancing Translational Sciences (NCATS), 2009)", "note": "Screen size: about 230,000 compounds; fewer than 10 were called active. This list was built around the results that the source calls inconclusive (neither active nor inactive); the mix of calls is not that of the screen. The call rests on the fitted dose curve; in most records, active means well fitted curve in the direction sought with a large enough effect; inconclusive means small, poorly fitted or top-dose-only effect, or effect the other way, or another doubt; inactive means no such curve, though single readings can be large or run the other way. Potencies of inconclusive entries are left out as doubtful fits.", "data": [{"target": "Runt-related transcription factor 1 (Homo sapiens) + Core-binding factor subunit beta (Homo sapiens) (UniProt Q01196+Q13951)", "sequence (Q01196 whole entry, looked up)": "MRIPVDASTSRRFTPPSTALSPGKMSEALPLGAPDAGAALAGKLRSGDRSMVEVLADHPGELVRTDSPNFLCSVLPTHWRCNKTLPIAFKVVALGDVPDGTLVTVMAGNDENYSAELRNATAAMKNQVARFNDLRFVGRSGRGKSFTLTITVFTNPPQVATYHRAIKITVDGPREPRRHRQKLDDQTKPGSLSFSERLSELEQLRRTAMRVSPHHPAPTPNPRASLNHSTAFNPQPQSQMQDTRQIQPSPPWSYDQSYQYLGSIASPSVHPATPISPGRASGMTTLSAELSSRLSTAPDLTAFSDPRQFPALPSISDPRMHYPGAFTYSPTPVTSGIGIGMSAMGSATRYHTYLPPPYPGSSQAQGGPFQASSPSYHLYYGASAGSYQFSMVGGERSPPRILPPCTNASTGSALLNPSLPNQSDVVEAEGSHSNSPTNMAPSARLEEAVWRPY", "sequence (Q13951 whole entry, looked up)": "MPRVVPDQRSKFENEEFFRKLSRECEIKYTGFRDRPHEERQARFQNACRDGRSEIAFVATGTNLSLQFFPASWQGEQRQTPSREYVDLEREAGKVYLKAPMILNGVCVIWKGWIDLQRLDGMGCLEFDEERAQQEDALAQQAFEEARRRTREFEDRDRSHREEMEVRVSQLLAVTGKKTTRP", "experiment": "qHTS Assay for Compounds Blocking the Interaction Between CBF-beta and RUNX1 for the Treatment of Acute Myeloid Leukemia; on activity, negative = inhibition: % of control where 0% means no effect", "details": "AlphaScreen CBFb-His/RUNX1-biotin binding, biochemical; activity, negative = inhibition: at 59.8 µM (top of the series) unless noted", "outline": "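Read-out: AlphaScreen. Format: His-CBF-beta with biotinylated RUNX1 (30 nM each) preincubated 20 min, compound 15 min, Ni-chelate plus streptavidin beads 90 min; room temperature throughout.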", "values": [{"smiles": "COC(=O)C1=CN(Cc2ccc(OC)cc2)C=C(C(=O)OC)C1c1ccsc1", "Potency": "inconclusive [activator, partial curve]"}, {"smiles": "CCCc1sc(N)nc1-c1ccc(C)cc1", "Potency": "inconclusive [inhibitor, single point]"}, {"smiles": "Cn1cccc1/C=C1\\SC(=S)N(NC(=O)c2ccccc2O)C1=O", "Potency": "inconclusive [inhibitor, single point]"}, {"smiles": "CCCCN(C(=O)CSc1nnc(-c2ccco2)o1)c1c(N)n(Cc2ccccc2)c(=O)[nH]c1=O", "Potency": "inconclusive [activator, single point]"}, {"smiles": "CC(=O)N[C@H]1[C@@H](O[C@@H](C)C(=O)O)[C@H](O)[C@H](CO)O[C@@H]1O", "activity, negative = inhibition": "inactive: -16.3% [at 21.7 µM]"}, {"smiles": "CCN(CC)c1ccc(C2C(C(=O)Nc3ccccn3)=C(C)NC3=C2C(=O)CC(C)(C)C3)cc1", "note": "(stereo not given)", "activity, negative = inhibition": "inactive: -5.88%"}, {"smiles": "Cc1ccc(-c2cc3ccccc3nc2N2CCOCC2)cc1", "Potency": "inconclusive [activator, single point]"}, {"smiles": "CCCC(=O)OC1(C(=O)CO)CCC2C3CCC4=CC(=O)CCC4(C)C3C(O)CC21C", "note": "(stereo not given)", "activity, negative = inhibition": "inactive: 0.946%"}, {"smiles": "CCN(CC)CCN1C(=O)C(O)=C(C(=O)c2cccs2)C1c1ccccn1", "note": "(stereo not given)", "Potency": "inconclusive [inhibitor, partial curve]"}, {"smiles": "CCOC(=O)N1CCN(C(=O)CCn2c(=O)[nH]c3ccsc3c2=O)CC1", "Potency": "inconclusive [inhibitor, single point]"}, {"smiles": "CCOC(=O)c1sc(=S)n(-c2ccc(C)cc2)c1SC", "activity, negative = inhibition": "inactive: 5.6%"}, {"smiles": "Cc1ccc(C(=O)O)cc1-c1ccc(/C=C2/NC(=O)N(c3ccccc3)C2=O)o1", "Potency": "inconclusive [inhibitor, partial curve]"}, {"smiles": "CN(C)c1ccc(/C=N/NC(=O)CCc2c[nH]c3ccccc23)cc1", "Potency": "inconclusive [inhibitor, single point]"}, {"smiles": "N#Cc1nc(-c2cccs2)oc1NCc1ccc(Cl)cc1", "Potency": "inconclusive [inhibitor, single point]"}, {"smiles": "c1ccc(-c2cc3ccccc3nc2N2CCCC2)cc1", "Potency": "inconclusive [activator, partial curve]"}, {"smiles": "O=c1c2ccccc2nc(COc2ccccc2)n1/N=C/c1ccc(O)c(O)c1", "Potency": "inconclusive [inhibitor, partial curve]"}, {"smiles": "COc1nc(-c2ccccc2)cc(-c2ccccc2)n1", "Potency": "inconclusive [activator, single point]"}, {"smiles": "CCCCCCCCCCCCCC(=O)O[C@@H]1[C@@H](C)[C@@]2(O)[C@@H](C=C(CO)C[C@]3(O)C(=O)C(C)=C[C@@H]23)[C@@H]2C(C)(C)[C@]12OC(C)=O", "Potency": "inconclusive [inhibitor, single point]"}, {"smiles": "CC1CC(=O)N(c2ccc(NCCc3ccc(O)cc3)c([N+](=O)[O-])c2)C1=O", "note": "(stereo not given)", "Potency": "inconclusive [inhibitor, single point]"}, {"smiles": "CCC/C=C(\\CCC)C(NC(=O)C(C)(C)C)c1ccc(C(=O)OC)cc1", "note": "(stereo not given)", "Potency": "inconclusive [activator, partial curve]"}, {"smiles": "CC1CC2=C(NC(=S)NC2c2ccccc2F)/C(=C/c2ccccc2F)C1", "note": "(stereo not given)", "Potency": "inconclusive [inhibitor, partial curve]"}, {"smiles": "N/C(=N\\OC(=O)CCCOc1ccccc1)c1ccccc1", "Potency": "inconclusive [activator, single point]"}, {"smiles": "c1ccc(-c2nnc(C(c3ccccc3)c3ccccc3)o2)cc1", "Potency": "inconclusive [activator, partial curve]"}, {"smiles": "CC(=O)NC(c1ccc(C)cc1)c1cc([N+](=O)[O-])c2cccnc2c1O", "note": "(stereo not given)", "Potency": "inconclusive [inhibitor, full curve]"}, {"smiles": "COC(=O)c1ccccc1NC(=O)C1COc2ccccc2O1", "note": "(stereo not given)", "Potency": "inconclusive [activator, single point]"}, {"smiles": "COc1cccc(N/C(N)=N/c2nc(C(F)(F)F)cc(=O)[nH]2)c1", "activity, negative = inhibition": "inactive: -3.79%"}, {"smiles": "Cc1ccc(S(=O)(=O)N2CCC(n3nnc4cc(C)ccc43)CC2)cc1", "activity, negative = inhibition": "inactive: -3.27%"}, {"smiles": "CN1CCN(c2nc(-c3ccco3)cc(C(F)(F)F)n2)CC1", "activity, negative = inhibition": "inactive: 3.9%"}, {"smiles": "NNc1nc2cccnc2n(CCNc2ncc(C(F)(F)F)cc2Cl)c1=O", "Potency": "inconclusive [inhibitor, full curve, poor fit]"}, {"smiles": "CCOc1cc(N2CCOCC2)c(OCC)cc1NC(=O)CSc1cccc[n+]1[O-]", "Potency": "inconclusive [inhibitor, single point]"}, {"smiles": "O=C1c2ccccc2NC(c2cccc(F)c2)N1Cc1ccco1", "note": "(stereo not given)", "Potency": "inconclusive [inhibitor, single point]"}, {"smiles": "COc1cccc(OCCNc2cc(N3CCCCC3)ccc2[N+](=O)[O-])c1", "Potency": "inconclusive [inhibitor, single point]"}, {"smiles": "COc1cccc(CNC(=O)C23CN(Cc4ccccc4)CC2C(c2ccc([N+](=O)[O-])cc2)=NO3)c1", "note": "(stereo not given)", "activity, negative = inhibition": "inactive: -25.1%"}, {"smiles": "CC(=N/O)/C(C)=N\\NC(=O)c1ccccn1", "activity, negative = inhibition": "inactive: -5.54%"}, {"smiles": "CSc1ccccc1NC(=O)c1cc(-c2cccnc2)nc2ccc(Br)cc12", "Potency": "inconclusive [inhibitor, single point]"}, {"smiles": "O=C(NC1CCCCC1)N(Cc1cc2cc3c(cc2[nH]c1=O)OCCO3)CC1CCCO1", "note": "(stereo not given)", "activity, negative = inhibition": "inactive: -3.9%"}, {"smiles": "Cn1c2c(c(=O)n(C)c1=O)C(C(F)(F)F)(C(F)(F)F)N=C(c1ccccc1Cl)N2", "Potency": "inconclusive [inhibitor, single point]"}, {"smiles": "COc1ccc(-c2cc(C(=O)OCC(=O)NC(C)(C)C)c3ccccc3n2)cc1", "Potency": "inconclusive [activator, single point]"}, {"smiles": "COc1cccc(Cn2nnc(C(=O)NCc3ccc4c(c3)OCO4)c2N)c1", "Potency": "inconclusive [activator, full curve, poor fit]"}, {"smiles": "COc1cc(/C=N/NC(=O)c2ccncc2)ccc1Oc1ccc([N+](=O)[O-])cn1", "activity, negative = inhibition": "inactive: -1.31%"}, {"smiles": "Cc1ncc(CN2CC=C(c3ccccc3)CC2)c(N)n1", "activity, negative = inhibition": "inactive: 5%"}, {"smiles": "CCOC(=O)C1(CCCCCCOc2ccc(Cl)cc2)CO1", "note": "(stereo not given)", "Potency": "inconclusive [activator, partial curve]"}, {"smiles": "CC(C)C[C@H](NC(=O)[C@H](CCCCN)NC(=O)CNC(=O)[C@H](CC(C)C)NC(=O)[C@@H](NC(=O)[C@@H]1CSSC[C@H](N)C(=O)N[C@@H](CO)C(=O)N[C@@H](CC(N)=O)C(=O)N[C@@H](CC(C)C)C(=O)N[C@@H](CO)C(=O)N[C@@H]([C@@H](C)O)C(=O)N1)C(C)C)C(=O)N[C@@H](CO)C(=O)N[C@@H](CCC(N)=O)C(=O)N[C@@H](CCC(=O)O)C(=O)N[C@@H](CC(C)C)C(=O)N[C@@H](Cc1cnc[nH]1)C(=O)N[C@@H](CCCCN)C(=O)N[C@@H](CC(C)C)C(=O)N[C@@H](CCC(N)=O)C(=O)N[C@H](C(=O)N[C@@H](Cc1ccc(O)cc1)C(=O)N1CCC[C@H]1C(=O)N[C@@H](CCCNC(=N)N)C(=O)N[C@H](C(=O)N[C@@H](CC(N)=O)C(=O)N[C@H](C(=O)NCC(=O)N[C@@H](CO)C(=O)NCC(=O)N[C@H](C(=O)N1CCC[C@H]1C(N)=O)[C@@H](C)O)[C@@H](C)O)[C@@H](C)O)[C@@H](C)O", "activity, negative = inhibition": "inactive: -9.74%"}, {"smiles": "O=C1OCCN1C(=O)[C@H]1[C@H](c2ccc(F)cc2)C(c2ccc(F)cc2)=NN1c1ccccc1", "Potency": "inconclusive [activator, partial curve]"}, {"smiles": "O=C1CCCC(=O)N1c1ccc(N2CCOCC2)c([N+](=O)[O-])c1", "Potency": "inconclusive [inhibitor, single point]"}, {"smiles": "CCc1nc(SCC(=O)Nc2nnc(CC(C)C)s2)n[nH]1", "Potency": "inconclusive [inhibitor, single point]"}, {"smiles": "Nc1c(C(=O)c2ccc(Cl)cc2)sc2nsc(SCCN3CCOCC3)c12", "activity, negative = inhibition": "inactive: -1.41%"}, {"smiles": "O=[N+]([O-])c1cc(C(F)(F)F)cc([N+](=O)[O-])c1N1CCN(S(=O)(=O)c2ccccc2)CC1", "Potency": "inconclusive [inhibitor, partial curve]"}, {"smiles": "COc1ccc(NC(=O)CC2CCCC2)cc1S(=O)(=O)N1CCCCC1", "activity, negative = inhibition": "inactive: -5.5%"}, {"smiles": "COc1cc(OC)cc(C(=O)NC(=S)Nc2ccc(N3CCCC3)cc2)c1", "Potency": "inconclusive [inhibitor, partial curve]"}, {"smiles": "Cc1nn(C)c(C(=O)Nc2ccc(Br)cc2F)c1Br", "Potency": "inconclusive [activator, full curve, poor fit]"}, {"smiles": "O=[N+]([O-])c1cc(-c2ccc(C(=S)N3CCOCC3)o2)ccc1Cl", "Potency": "inconclusive [inhibitor, partial curve]"}, {"smiles": "O=c1c2ccccc2nc2ccc(NCc3ccco3)nn12", "Potency": "inconclusive [inhibitor, single point]"}, {"smiles": "CNc1ccc(Br)cc(C(=O)/C=C/c2ccc3c(c2)OCO3)c1=O", "Potency": "inconclusive [inhibitor, single point]"}, {"smiles": "O=S1(=O)C2CC3C=CC2(O3)C(O)C(Cc2ccccc2)N1Cc1cccc(C(F)(F)F)c1", "note": "(stereo not given)", "activity, negative = inhibition": "inactive: 2.09%"}, {"smiles": "Cc1cc(C)c(NC(=S)N(CCN(C)C)Cc2cccs2)c(C)c1", "Potency": "inconclusive [activator, single point]"}, {"smiles": "C=C1c2cc(C)ccc2NC(=O)N1c1ccccc1", "Potency": "inconclusive [inhibitor, single point]"}, {"smiles": "CCOC(=O)/C(C#N)=C1/C=C(C)c2ccccc2N1", "Potency": "inconclusive [activator, partial curve]"}, {"smiles": "CC(C(=O)O)c1ccc(-c2ccccc2)c(F)c1", "note": "(stereo not given)", "Potency": "inconclusive [inhibitor, single point]"}, {"smiles": "COc1ccc(C2CCCN2C(=S)Nc2ccc(C)c(C)c2)cc1OC", "note": "(stereo not given)", "activity, negative = inhibition": "inactive: 5.68%"}]}]}
